# Experimental data taken from article PMC4336329 (PLoS ONE, 2015).
# About 14,000 (4.5%) of roughly 310,000 compounds showed an effect of 50% or more. Effects have a minus sign here. The list shows a part of the results.
# Molecular target: human ether-à-go-go-related gene (hERG) potassium channel (human, UniProt Q12809)
# Experiment: primary screen, population patch clamp on CHO cells stably expressing hERG
# 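Note: peak tail current of the secondary pulse compared with the same well before compound.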
# Sequence of human ether-à-go-go-related gene (hERG) potassium channel (Q12809 whole entry, looked up): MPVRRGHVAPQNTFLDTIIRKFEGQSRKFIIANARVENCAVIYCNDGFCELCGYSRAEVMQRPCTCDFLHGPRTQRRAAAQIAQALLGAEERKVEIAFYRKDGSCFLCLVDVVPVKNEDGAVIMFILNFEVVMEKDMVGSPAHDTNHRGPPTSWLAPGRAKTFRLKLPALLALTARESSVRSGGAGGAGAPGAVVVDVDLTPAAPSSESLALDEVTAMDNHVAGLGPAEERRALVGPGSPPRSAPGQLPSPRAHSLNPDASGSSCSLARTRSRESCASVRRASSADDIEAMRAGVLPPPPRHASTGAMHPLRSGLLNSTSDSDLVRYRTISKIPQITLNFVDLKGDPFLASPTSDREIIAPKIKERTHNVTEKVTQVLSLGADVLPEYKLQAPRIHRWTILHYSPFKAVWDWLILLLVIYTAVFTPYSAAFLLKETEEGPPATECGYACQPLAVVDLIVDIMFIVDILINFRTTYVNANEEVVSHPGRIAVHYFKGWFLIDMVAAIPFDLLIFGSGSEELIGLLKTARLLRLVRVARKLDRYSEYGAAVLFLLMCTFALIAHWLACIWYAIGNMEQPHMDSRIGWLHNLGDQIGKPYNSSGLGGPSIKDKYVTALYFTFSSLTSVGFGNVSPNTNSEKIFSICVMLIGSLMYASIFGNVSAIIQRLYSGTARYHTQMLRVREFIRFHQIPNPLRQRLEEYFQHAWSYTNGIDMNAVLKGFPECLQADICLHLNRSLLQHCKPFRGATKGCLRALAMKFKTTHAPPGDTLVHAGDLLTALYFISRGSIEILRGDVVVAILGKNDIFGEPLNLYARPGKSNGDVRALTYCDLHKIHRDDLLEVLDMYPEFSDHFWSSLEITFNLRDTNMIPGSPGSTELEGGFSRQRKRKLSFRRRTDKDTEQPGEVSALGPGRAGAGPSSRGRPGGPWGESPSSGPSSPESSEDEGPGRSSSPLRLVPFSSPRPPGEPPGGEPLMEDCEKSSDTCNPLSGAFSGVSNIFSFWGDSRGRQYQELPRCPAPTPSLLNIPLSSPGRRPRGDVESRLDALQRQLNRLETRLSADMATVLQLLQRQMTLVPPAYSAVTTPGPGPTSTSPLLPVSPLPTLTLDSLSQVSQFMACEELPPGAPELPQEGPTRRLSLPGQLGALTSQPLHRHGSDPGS
row,Compound,"hERG current change (%, negative = inhibition) at 10uM"
1,O=C1C(=O)N(CCCN2CCOCC2)C(c2ccc([N+](=O)[O-])cc2)/C1=C(\O)c1ccc2c(c1)OCCO2 (centres unmarked),7.47%
2,O=C(CCNC(=O)c1ccc(Br)cc1)NNC(=O)C1COc2ccccc2O1 (centres unmarked),-7.71%
3,c1ccc(N2CCN(c3nc(-c4cccs4)nc4ccccc34)CC2)cc1,-8.84%
4,COC(=O)c1ccc(NC(=O)CN2C(=O)c3ccccc3S2(=O)=O)cc1,16.8%
5,Cc1csc(NC(=O)Cc2nn(C)c(=O)c3ccccc23)n1,1.84%
6,CC(C)S(=O)(=O)c1csc(C(=O)NNC(=O)Nc2ccccc2)c1Cl,8.75%
7,CC1CC(C)CN(S(=O)(=O)c2ccc(NN)nc2)C1 (centres unmarked),3.46%
8,NC(=O)CC(NC(=O)Cc1ccc(Br)cc1)c1ccc(NC2CCC2)c([N+](=O)[O-])c1 (centres unmarked),-19.8%
9,COc1ccccc1/C=C/C(=O)OCC(=O)Nc1c(F)cccc1F,35.9%
10,CC(=O)Nc1cccc(NC(=O)CSc2nnc3ccc(-c4ccccn4)nn23)c1,20.9%
11,CN(CC(=O)O/N=C(\N)c1cccc([N+](=O)[O-])c1)S(=O)(=O)c1ccccc1,-24.4%
12,CCCNc1c(NS(=O)(=O)c2c(F)c(F)c(F)c(F)c2F)c(=O)oc2ccccc12,-7.27%
13,Cc1cc(C)c(NC(=O)CS(=O)CC(=O)NCCCc2ccccc2)c(C)c1 (centres unmarked),-2.19%
14,COc1ccc([C@@H]2[C@@H]3C(=O)N(C(C)(C)C)C(=O)[C@@H]3[C@]3(Cc4ccc(Cl)cc4)C(=O)N(c4ccc(Br)cc4)C(=O)N23)cc1,2.7%
15,Cc1cc(C)cc(OCC(=O)OCC(=O)Nc2ccc(Cl)cn2)c1,3.54%
16,COc1ccnc(CSC(N)=Nc2ccc(F)cc2)c1.Cl,-26.2%
17,CC(C)(C)c1ccc(NC(=O)c2ccsc2)cc1,2.17%
18,Cc1ccccc1C(=O)Nc1ccc(Br)cn1,12.4%
19,COc1ccc(C(=O)Nc2nnc(S(=O)(=O)N(C)Cc3ccc(F)cc3)s2)cc1OC,-12%
20,O=C(CCN1C(=O)C2C3C=CC(C3)C2C1=O)Nc1ccc2c(c1)OCO2 (centres unmarked),-5.95%
21,CCOC(=O)N1CCN(CC(O)COc2cc(C)ccc2C(C)C)CC1.Cl (centres unmarked),-26.8%
22,O=C(c1cc2ccccc2cc1O)N1CCN(c2cccc(Cl)c2)CC1,16.2%

row,Compound,"hERG current change (%, negative = inhibition) at 10uM"
1,COc1ccc(OCC(=O)N2CCN(C/C=C/c3ccccc3)CC2)cc1,-58.8%
2,O=C1CC(c2ccc(F)cc2)Sc2nc(-c3ccccc3)c(-c3ccccc3)n21 (centres unmarked),-5.09%
3,CC1CNCCN1S(=O)(=O)c1cccc2cnccc12 (centres unmarked),-4.97%
4,CCn1ncc(NC(=S)NCCc2ccccc2)c1C(N)=O,-14.6%
5,Cc1nn(C)cc1CN1CCC(n2nccc2NC(=O)CCCc2ccccc2)CC1,-3.27%
6,COc1cccc(C(=O)N2CCN(C(=O)c3cccs3)CC2)c1OC,2.72%
7,CCOC(=O)CN1CCC(c2ccccc2)CC1,-2.19%
8,CC(C)NCC(O)c1ccc(NS(C)(=O)=O)cc1.Cl (centres unmarked),24.8%
9,COc1ccccc1NS(=O)(=O)c1cccc(C(=O)N/N=C/c2ccc(C)o2)c1,4.6%
10,CCS(=O)(=O)N1Cc2ccccc2CC1C(=O)NCc1cccc(OC)c1 (centres unmarked),-10.1%
11,Oc1ccc2ccccc2c1/C=N/Nc1ccccc1,13.4%
12,C(=C\c1ccccc1)/CSc1nnc(-c2ccccn2)n1Cc1ccco1,-50.9%
13,Cc1ccc(N=C2NC(=O)C(CC(=O)O)S2)cc1 (centres unmarked),5.7%
14,COc1ccc(C(=O)NNS(=O)(=O)c2ccccc2)cc1,2.22%
15,O=C(NC1CCCc2ccccc21)C12CC3CC(CC(O)(C3)C1)C2 (centres unmarked),25.6%
16,CCOC(=O)c1cc(CC)sc1N,15.9%
17,O=Cc1ccc2ccc3cccnc3c2n1,-24.4%
18,Cc1ccc(S(=O)(=O)N2CCN(C(=O)COC(=O)CCOc3ccccc3)CC2)c(C)c1,1.16%
19,CC(NC(=O)C(=O)NN=C1CCCCCCC1)c1ccccc1 (centres unmarked),2.29%
20,COC(=O)C1=C(c2ccc(S(C)(=O)=O)cc2)C[C@@H]2CC[C@H]1N2C(=O)NC1CCCCC1,-26.9%
21,O=C(O)c1cn(-c2ccc(N3CCCC3)c(F)c2)c2c(F)c(F)c(F)cc2c1=O,-19.2%
22,Cc1ccc(NC(=O)CS(=O)CC(=O)N(CC(=O)NC2CCCC2)c2cc(C)ccc2C)cc1 (centres unmarked),-31.6%

row,Compound,"hERG current change (%, negative = inhibition) at 10uM"
1,COc1ccc(C(=O)Nc2ccc(SC(F)F)cc2)cc1,-2.14%
2,CCN(C(=O)COc1ncnc2ccc(Br)cc12)C1CCS(=O)(=O)C1 (centres unmarked),1.58%
3,Cc1oc(-c2ccccc2Cl)nc1CS(=O)(=O)CC(=O)NCCc1ccccc1,-18%
4,CCC(COC(=O)NC)NC(=O)Oc1ccccc1 (centres unmarked),-4.44%
5,O=C(NCCCn1cccn1)C1CCC(=O)N(Cc2cccc(C(F)(F)F)c2)C1 (centres unmarked),8.62%
6,COc1ccccc1C(=O)NC(CCSC)C(=O)N1CCC(Cc2ccccc2)CC1 (centres unmarked),-23.1%
7,Cc1ccc(CNC(=O)c2ccccc2N)cc1,5.16%
8,CCCn1c(N/N=C\C=C\c2ccccc2)nc2c1c(=O)[nH]c(=O)n2C,-29%
9,CSc1cccc(NC(=O)C(C)Sc2ccc(C)cc2)c1 (centres unmarked),-5.32%
10,NS(=O)(=O)c1ccc(NC(=O)COC(=O)c2cc3ccccc3oc2=O)cc1,-5.94%
11,Cc1ccc(C(=O)NCCCN2CCOCC2)cc1N1CCCC1=O,8.7%
12,O=C(C1CCN(S(=O)(=O)c2cccc3cccnc23)CC1)N1CCN(C2CCCCC2)CC1,-0.647%
13,Cc1[nH]c2ccccc2c1C(=O)CN1CCN(C/C=C/c2ccccc2)CC1,-73.4%
14,COCCNc1nc(-c2cc(C(=O)Nc3ccccc3)on2)cc(C(C)C)n1,-18.8%
15,COCCn1c(=S)[nH]c2cc(C(=O)N3CCN(c4ccccc4OC)CC3)ccc2c1=O,10.1%
16,CCOc1ccc2[nH]c(C)c(CN3CCN(C)CC3)c(=O)c2c1,-12.7%
17,Cc1ccc(NC(=O)c2cc(C)no2)cc1,16.9%
18,CC(C)[C@H](NC(=O)Nc1ccc(Oc2ccccc2)cc1)C(=O)O,-5.32%
19,CCOC(=O)N1CCC(=NNc2nc3ccccc3s2)CC1,-4.59%
20,COc1cc(/C=C(\C#N)c2nnc(N3CCOCC3)n2-c2ccccc2)ccc1O,1.64%
21,Cc1ccc(C)c(OCC(=O)Nc2ccc(N3CCOCC3)cc2N2CCOCC2)c1,-49.8%
22,Cc1cc(C)c(C)c(S(=O)(=O)NCc2ccc(C(=O)NCC3CCCO3)cc2)c1C (centres unmarked),-11%

row,Compound,"hERG current change (%, negative = inhibition) at 10uM"
1,CCOC(=O)CSc1ncccn1,8.18%
2,O=C(COc1ccccc1)OCC(=O)c1ccc(S(=O)(=O)N2CCCCC2)cc1,17.4%
3,O=S(=O)(Nc1ccc2c(c1)OCCO2)c1cccc2nsnc12,-11.2%
4,Cc1ccc(S(=O)(=O)N(C)C)cc1NC(=O)COC(=O)c1ccc2c(c1)NC(=O)CS2,-32.5%
5,CSc1ccccc1C(=O)N1CCC(CCC(=O)NC2CC2)CC1,11.6%
6,COc1ccc(C2(c3ccc(OC)cc3)NC(=O)N(CC(=O)NC3(C#N)CCCCC3)C2=O)cc1,-42.4%
7,O=C(c1ccc(-n2cccc2)cc1)N1CCOCC1,-3.34%
8,CCOc1ccc(CCNC(=O)CCNS(=O)(=O)c2ccc3c(c2)CCN3C(C)=O)cc1OCC,0.411%
9,Cc1c(CCC(=O)N2CCC[C@H]2C(=O)O)c(=O)oc2cc3oc4c(c3cc12)CCCC4,8.7%
10,COc1ccc(C(C(=O)NCC2CCCO2)N(C(=O)CNC(=O)c2ccco2)c2cc(C)ccc2C)cc1OC (centres unmarked),16.5%
11,O=C(Cn1nnc2ccccc2c1=O)N1CCCc2ccccc21,-13.7%
12,O=C(N=C1SC2CS(=O)(=O)CC2N1c1ccc(OC(F)(F)F)cc1)C1CC1 (centres unmarked),7.09%
13,Cc1nc(C)c(-c2ccc(SCC(=O)Nc3ccc(C)c(Cl)c3)nn2)s1,21.8%
14,COc1ccc(S(=O)(=O)NCC(c2ccc3c(c2)OCO3)N2CCOCC2)cc1C (centres unmarked),-15.8%
15,CSCCC(=O)N1CCC(n2nccc2NC(=O)CCc2ccccc2)CC1,4.53%
16,Cc1ccc(S(=O)(=O)NCc2ccccc2)cc1C(=O)N(C)Cc1ccccc1F,-45.1%
17,CC(C)(C)OC(=O)CNC(=O)c1nc[nH]c1C(=O)N1CCN(C(=O)OC(C)(C)C)CC1,-15.8%
18,Cc1cccc(Nc2nc(N3CCN(C)CC3)nc(N)c2[N+](=O)[O-])c1,-39.3%
19,COc1ccccc1CCNS(=O)(=O)c1c(C)n(C)c(=O)n(C)c1=O,7.84%
20,CC(/C=N/N1CCN(c2ccccc2)CC1)=C\c1ccccc1,0.134%
